For the data set, the system named is ATP. Put plainly: switch fluorescence ratio, 500 uM ATP over buffer (Cy3 cluster intensity, sum of 5 cycles each) (fold (ratio)); higher = stronger signal-on switching upon ATP binding; sequences stand for … in TCGTCGGCAGCGTCAGATGTGTATAAGAGACAGTTTTTTTTTTTTTTTTTTTTTTTTT…TC. The note with it: aptamer strand: ATP DNA aptamer (quencher-CACCTGGGGGAGTATTGCGGAGGAAGG + anchor), 100 nM annealed; ATP concentration: 500 uM; one replicate. An outline of the steps: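 Clusters carrying Cy3-labelled switching strands on a modified Illumina MiSeq flow-cell were annealed to 100 nM quencher-labelled ATP aptamer and imaged in selection buffer. They were imaged again after 15 min with 500 uM ATP at 22 °C, over five buffer/ATP cycles with NaOH stripping and re-annealing in between. For each cluster, the fluorescence ratio is the summed Cy3 intensity of the target cycles divided by that of the buffer cycles, averaged per switch-domain sequence. Clusters outside 100-1000 RFU were left out.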

Values marked as one replicate rest on one cluster of the flow cell; about a third of the high ones do not repeat.
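Further: ATP exposure 15 min at 22 °C before imaging.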

With CGGGAACCTG, the switch fluorescence ratio came to 1.03.

ATCAAGGAGG: the switch fluorescence ratio was found to be 0.984.

On to GATATGACGG, for which the switch fluorescence ratio was found to be 0.984.

For TGCATGTCGG, the switch fluorescence ratio worked out at 1.

For the sequence CGCCAATAAT, the switch fluorescence ratio was 1.87.

On to AGGGGAGGA, for which the switch fluorescence ratio was 1.03.

On to GCTGAAGTTG, for which the switch fluorescence ratio was determined as 0.991.

With TTTTTAGCGC, the switch fluorescence ratio was 0.948.

With ACTAATCTGA, the switch fluorescence ratio was found to be 1.07.

With GCATCAACAA, the switch fluorescence ratio was found to be 1.

CATATTTGGC: the switch fluorescence ratio turned out to be 1.03.

As for TACTTGCTCC, the switch fluorescence ratio was 1.57.

For AATTCGACAT, the switch fluorescence ratio was 1.01.

As for CAGTTCTTG, the switch fluorescence ratio is 0.963.

CGATTCTGTA: the switch fluorescence ratio turned out to be 1.01.

Turning to AAGGCGGTTC, the switch fluorescence ratio came to 0.939.

Regarding TGCGCATACA, the switch fluorescence ratio is 1.18.

In the case of GTAGGTCAGC, the switch fluorescence ratio is 0.996.

With TAGGTCTTAC, the switch fluorescence ratio worked out at 1.04.

For the sequence ACTGGCGCGT, the switch fluorescence ratio is 1.02.

As for AAGTTAAATA, the switch fluorescence ratio is 1.03.

Turning to TGCAAGACAG, the switch fluorescence ratio was determined as 1.08.

For the sequence ATGTTCGCAG, the switch fluorescence ratio was 1.

As for GGGTCATA, the switch fluorescence ratio came to 1.02.

As to CGTTGTCCTT, the switch fluorescence ratio is 0.912.

With ACTTGTCCGT, the switch fluorescence ratio was found to be 1.03.

GTCCTTAGCC: the switch fluorescence ratio came to 1.

Consider TTATTGCGGC, for which the switch fluorescence ratio was determined as 1.09.

On to CCGTCGGACG, for which the switch fluorescence ratio came out at 1.02.

With ACTAAGGTTT, the switch fluorescence ratio was determined as 1.03.

With TTACAGAAGT, the switch fluorescence ratio worked out at 1.03.

AATTTGTATA: the switch fluorescence ratio came to 1.

ATAATACTTA: the switch fluorescence ratio came out at 1.03.

Regarding GGCCCGGACG, the switch fluorescence ratio was found to be 1.02.

Consider GTGGTCCGGT, for which the switch fluorescence ratio was determined as 0.988.

Regarding GGGACGTAGT, the switch fluorescence ratio was 0.916.

Consider GCGTCAGGAG, for which the switch fluorescence ratio amounted to 1.04.

GGTCTCTA: the switch fluorescence ratio was 0.98.

Consider GGGTCACCAA, for which the switch fluorescence ratio worked out at 1.04.

Take TGCTTGAAAG: the switch fluorescence ratio was 0.961.

For CCGCCTAATA, the switch fluorescence ratio came to 5.06.

With AACCAACGA, the switch fluorescence ratio is 1.52.

GGAGGTAATC: the switch fluorescence ratio was 1.06.

On to GCACAACGTA, for which the switch fluorescence ratio came out at 1.06.

On to CTCTACATCC, for which the switch fluorescence ratio worked out at 1.07.

On to AACTACTAAG, for which the switch fluorescence ratio was 1.02.

In the case of CGTGTGATGG, the switch fluorescence ratio stood at 0.991.

Take AATTCTCTGA: the switch fluorescence ratio is 1.01.

Turning to TTCATCTTGG, the switch fluorescence ratio turned out to be 0.999.

On to AGTATAAGGT, for which the switch fluorescence ratio is 0.989.

With CACAGGGGCC, the switch fluorescence ratio worked out at 1.08.

Consider GGGTGCACTT, for which the switch fluorescence ratio is 0.982.

For the sequence ACGGTTAGC, the switch fluorescence ratio is 1.1.

CACGGGGTC: the switch fluorescence ratio amounted to 1.

For the sequence TACGGGGTTG, the switch fluorescence ratio was 1.04.

Turning to GACTCCTTGA, the switch fluorescence ratio is 1.02.

Take TCACTTATCT: the switch fluorescence ratio was 1.

For CCTACCTAAT, the switch fluorescence ratio was determined as 1.7.

In the case of GGTGCAGACC, the switch fluorescence ratio was 1.01.

As to TTAATACGTG, the switch fluorescence ratio came out at 1.06.

Take CTGGGGCATA: the switch fluorescence ratio amounted to 1.4.

As for TGGTGAGTGG, the switch fluorescence ratio is 0.996.

Take AACGGGAAAC: the switch fluorescence ratio stood at 1.05.

For ATATACTTTC, the switch fluorescence ratio is 1.04.

In the case of GGATGAACTT, the switch fluorescence ratio was found to be 1.01.

In the case of CGTACAAAAA, the switch fluorescence ratio came out at 1.05.

As for CAGTTGCTA, the switch fluorescence ratio came out at 0.952.

Turning to CGGGCCTTAG, the switch fluorescence ratio came out at 0.975.

With GATAGCTTCA, the switch fluorescence ratio was determined as 1.07.

In the case of TAGTTTCAGG, the switch fluorescence ratio turned out to be 0.973.

With CCATACGCTA, the switch fluorescence ratio was found to be 2.8.

As for CTCTGTTCAC, the switch fluorescence ratio is 1.23.

For CAGAATGAAG, the switch fluorescence ratio worked out at 0.998.

Turning to GTTGACAAAA, the switch fluorescence ratio is 1.

With AGAGTACCTG, the switch fluorescence ratio turned out to be 1.06.

Consider GTAGGTGGGT, for which the switch fluorescence ratio was 1.02.

In the case of TACATCATAA, the switch fluorescence ratio turned out to be 1.02.

Turning to TTTATTATCT, the switch fluorescence ratio came out at 1.07.

AATACGAAGA: the switch fluorescence ratio worked out at 1.03.

CCAAAGCTCT: the switch fluorescence ratio stood at 1.59.

For GGCAAAAACA, the switch fluorescence ratio was found to be 0.991.

Turning to GAACTTGACT, the switch fluorescence ratio was determined as 1.03.

For GACGGTTTA, the switch fluorescence ratio worked out at 0.989.

Turning to GGATGAAAAC, the switch fluorescence ratio came out at 0.976.

Take AACTACGTCC: the switch fluorescence ratio was 1.14.

As for CGTGCGCGTA, the switch fluorescence ratio was determined as 1.01.

Consider TGGGCATTGT, for which the switch fluorescence ratio is 0.952.

Regarding TTGAGGCTT, the switch fluorescence ratio came to 1.02.

Take CTGGACGTGC: the switch fluorescence ratio came to 1.05.

Regarding ATTGATTCTA, the switch fluorescence ratio worked out at 0.987.

Regarding ATTATATTG, the switch fluorescence ratio amounted to 1.02.

As to ATTGACCTCG, the switch fluorescence ratio was 1.01.

With GATAGACCGT, the switch fluorescence ratio amounted to 1.01.

Turning to GCTTTTTATT, the switch fluorescence ratio stood at 1.01.

Consider CGTGACACCT, for which the switch fluorescence ratio is 1.04.

With ATTGCCCCCA, the switch fluorescence ratio is 1.04.

Turning to CTATTAGTCT, the switch fluorescence ratio turned out to be 0.978.

Turning to CAGACCCAGG, the switch fluorescence ratio came out at 1.19.

On to TGACGGACTA, for which the switch fluorescence ratio was 1.59.

Consider CAATTTGATT, for which the switch fluorescence ratio is 1.02.

Take ATCCTTATAT: the switch fluorescence ratio is 1.02.

Regarding AAGAGAAGTA, the switch fluorescence ratio is 1.07.

In the case of TCTGTGATCA, the switch fluorescence ratio worked out at 1.03.

As to CTAGGAATGG, the switch fluorescence ratio came out at 1.03.

As for TAGTCGAAC, the switch fluorescence ratio was 1.05.

GTGATTAAAG: the switch fluorescence ratio came to 0.988.

Turning to CTAACCTCTA, the switch fluorescence ratio was found to be 1.02.

As for TACGATCATG, the switch fluorescence ratio turned out to be 1.01.

For AGCAAACACT, the switch fluorescence ratio was 1.04.

Turning to ACTGAGACGC, the switch fluorescence ratio came to 0.993.

In the case of TAAATTCTAA, the switch fluorescence ratio is 1.

On to CCCTGGGAAT, for which the switch fluorescence ratio came to 0.984.

As for ATTGATGAGA, the switch fluorescence ratio stood at 1.02.

Regarding TGTGGCTTTC, the switch fluorescence ratio worked out at 1.

With CACAAATGTG, the switch fluorescence ratio amounted to 0.984.

With TTCGCGTCA, the switch fluorescence ratio turned out to be 1.02.

For the sequence TCAGGGCTAT, the switch fluorescence ratio worked out at 1.14.

Regarding TTAAATGTTC, the switch fluorescence ratio amounted to 0.995.

For TAGCTTCCG, the switch fluorescence ratio is 1.34.

Take ACGGCCCCGA: the switch fluorescence ratio is 1.03.

The record behind these values is the supplement of paper PMC10126150.
